# Measurements from the supplement of paper PMC4166925.
# ± gives the standard deviation of the averaged measurements. Whole data set: some 33,000 sequences, median “E-score (dimensionless, -0.5 to 0.5)” near -0.046, cut for the highest 2% near 0.36. The list shows a part of the results.
# System: T1, SpTbr T-box DNA-binding domain (GST fusion)
# T1 sequence: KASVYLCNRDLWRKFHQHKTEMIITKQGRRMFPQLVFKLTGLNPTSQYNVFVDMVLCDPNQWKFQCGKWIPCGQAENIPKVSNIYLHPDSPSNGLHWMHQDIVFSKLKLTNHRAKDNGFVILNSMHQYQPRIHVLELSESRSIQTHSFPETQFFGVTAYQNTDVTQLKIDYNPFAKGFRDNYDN
# Assay: PBM E-score of 8-mer (E-score (dimensionless, -0.5 to 0.5)); Tbr is Tbrain of the sea star Patiria miniata (Pm) or the sea urchin Strongylocentrotus purpuratus (Sp); higher = stronger binding preference; most listed sequences are background and not binding sites
# Conditions: the construct has about 5 more residues each side
# Experimental: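 Universal protein-binding microarray (Agilent AMADID 016060, 60-bp probes with a 35-bp variable region) incubated with 200 nM GST-fused Strongylocentrotus purpuratus Tbr T-box DNA-binding domain (residues 362-554) in PBS pH 7.5. Scored for every ungapped 8-mer (given with its reverse complement) as E-score (range -0.5 to 0.5; >0.45 counts as bound) and Z-score of median probe intensity. Two replicate arrays (datasets 1 and 2).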
# 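Note: protein at 200 nM in PBS on universal double-stranded arrays.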
row,Sequence,PBM E-score of 8-mer
1,GATGAACC,-0.244 ± 0.055
2,ATAGTCCG,-0.0403 ± 0.065
3,GATGGGCC,-0.188 ± 0.024
4,AGTCATAG,0.0432 ± 0.023
5,TAAGAGAA,-0.241 ± 0.094
6,TGAACACA,0.136 ± 0.051
7,GATGGCTA,-0.127 ± 0.081
8,CTTTCGAA,0.0618 ± 0.015
9,ATAGGTAC,-0.178 ± 0.079
10,AGACCATG,-0.0594 ± 0.025
11,ACCTAGGG,0.162 ± 0.088
12,GTTAGAGA,0.0842 ± 0.098
13,AATTCCCA,-0.14 ± 0.032
14,CTCTACTC,-0.0577 ± 0.076
15,AAACTAGA,-0.184 ± 0.12
16,AGAACTTA,-0.0369 ± 0.0036
17,CTGCTAAA,0.0425 ± 0.15
18,GCGGGACA,-0.0855 ± 0.043
19,AGTTACAT,-0.00121 ± 0.052
20,CGTGGCGC,0.194 ± 0.074
21,AAACGTAA,-0.133 ± 0.015
22,ATATCACA,0.307 ± 0.028
23,AGATGGTA,-0.0279 ± 0.063
24,CACGGGTA,0.0283 ± 0.014
25,CAAGGGAC,0.0013 ± 0.045

row,Sequence,PBM E-score of 8-mer
1,AGCGTCTG,-0.143 ± 0.055
2,ACCCTTAG,0.0897 ± 0.025
3,TATTCAGA,-0.282 ± 0.053
4,ATCGTTCC,-0.0546 ± 0.0048
5,CAGTAAGG,-0.0533 ± 0.03
6,CTTAGCGC,0.265 ± 0.047
7,AAACGAAT,0.0397 ± 0.069
8,AGAACGAC,-0.0201 ± 0.022
9,ACCGTGCT,0.0507 ± 0.043
10,GGACCGCC,-0.155 ± 0.033
11,CGCTCGAC,-0.0351 ± 0.11
12,TCGGATCA,-0.03 ± 0.008
13,CTCCTGAC,0.0548 ± 0.024
14,CAGGTATG,0.0341 ± 0.0037
15,AGTATTGG,-0.1127 ± 0.00064
16,AAAAAGCA,0.12 ± 0.011
17,GAGTTCAC,0.256 ± 0.053
18,TACCAATA,-0.0646 ± 0.057
19,AAAGGATG,-0.214 ± 0.059
20,AAAGTCAC,0.119 ± 0.0087
21,CCACATAG,-0.0313 ± 0.00086
22,TCACTACA,0.173 ± 0.016
23,CCCCCTAA,-0.263 ± 0.03
24,GAGTCGGA,-0.276 ± 0.085
25,GGTGCAAC,0.176 ± 0.012

row,Sequence,PBM E-score of 8-mer
1,AGGACGCG,-0.054 ± 0.079
2,CACGACCG,-0.0494 ± 0.098
3,AGCTCGCG,0.271 ± 0.033
4,ACGCCGAG,0.0691 ± 0.026
5,AAAAGACG,-0.172 ± 0.028
6,ACAAGTTA,0.0857 ± 0.15
7,ACGTCTGC,-0.129 ± 0.03
8,CAGTAGAG,0.0207 ± 0.018
9,CTGGCAAG,-0.233 ± 0.014
10,AGCTTATG,-0.273 ± 0.061
11,ATTATCTC,0.0263 ± 0.041
12,CGGTTCGA,-0.0657 ± 0.06
13,AGAGCCGG,-0.263 ± 0.065
14,TAAGGAAA,-0.136 ± 0.076
15,ATTGTTAC,0.22 ± 0.017
16,GGCTGGTA,-0.171 ± 0.037
17,CCATCGGG,-0.0648 ± 0.033
18,AGGTGCAG,0.287 ± 0.055
19,AGTTGTGC,0.0504 ± 0.0086
20,CCGATTCC,-0.307 ± 0.012
21,ATACTGGC,-0.201 ± 0.025
22,GAATTCTC,0.0707 ± 0.0016
23,AGAGCCCA,-0.2081 ± 0.0017
24,GATCCACC,-0.0245 ± 0.0077
25,AACGTGGT,0.0744 ± 0.038

row,Sequence,PBM E-score of 8-mer
1,GAAAGCCC,-0.283 ± 0.0092
2,ATGAAGAA,-0.0743 ± 0.087
3,GCTCATAC,-0.0299 ± 0.01
4,AGTCTATG,-0.251 ± 0.014
5,ATCAAGCA,-0.0419 ± 0.014
6,TATGACGA,-0.0832 ± 0.054
7,CTGCGGTC,-0.0469 ± 0.00098
8,CCAGTATA,-0.13 ± 0.036
9,CCTTAAAA,-0.12 ± 0.064
10,ATCCATAG,-0.212 ± 0.02
11,GCGCGGAC,0.242 ± 0.046
12,GTAATTTA,-0.0191 ± 0.074
13,CCCTGGTC,-0.0321 ± 0.028
14,CCCAATGC,-0.275 ± 0.026
15,ACCTGAAT,0.0642 ± 0.047
16,ACCAAAGG,-0.248 ± 0.024
17,CGTTTTAA,-0.00155 ± 0.11
18,CTAGATTC,-0.0153 ± 0.052
19,CTAACTCA,-0.00571 ± 0.045
20,ATCGAACA,-0.0848 ± 0.006
21,CGGATGGC,-0.0926 ± 0.0036
22,ACATTTTA,0.0151 ± 0.0042
23,GCGTTCGA,0.0517 ± 0.025
24,ATTCGGGC,-0.0997 ± 0.061
25,CTACTCAC,0.192 ± 0.02

row,Sequence,PBM E-score of 8-mer
1,ACTCCACA,0.218 ± 0.034
2,AACGGTTG,0.152 ± 0.027
3,AGACGGAA,-0.0561 ± 0.057
4,ACGAATTA,-0.109 ± 0.043
5,TCCCTAAA,-0.115 ± 0.054
6,GAGTATAA,-0.0577 ± 0.057
7,AAAGTGAA,-0.017 ± 0.029
8,AAGTGACT,0.0603 ± 0.012
9,CCTGGTGA,0.0525 ± 0.11
10,CAATCTCC,0.016 ± 0.1
11,AACCCGAC,0.164 ± 0.046
12,GCCAGAGC,-0.321 ± 0.034
13,AGCCCAAA,-0.319 ± 0.0085
14,GGCGCAAA,0.252 ± 0.016
15,CCCGCCAA,0.103 ± 0.024
16,CGGGCGGC,-0.0823 ± 0.034
17,ACAGCAGT,-0.0239 ± 0.063
18,AAACTCAA,-0.00724 ± 0.011
19,CGAAGCGA,0.112 ± 0.051
20,ATGTTTCC,-0.109 ± 0.048
21,CGTGGGTC,0.0464 ± 0.031
22,AGAGGGAC,-0.00168 ± 0.0061
23,CAGTCAGC,-0.137 ± 0.051
24,CTTCAAAA,-0.1056 ± 0.00038
25,AAAATGGA,-0.119 ± 0.091

row,Sequence,PBM E-score of 8-mer
1,ACTCAATA,0.0176 ± 0.0082
2,GAATCGAA,0.0339 ± 0.045
3,CATGTACG,0.0634 ± 0.009
4,GCTTTATA,-0.0384 ± 0.072
5,GCAATAAC,-0.0468 ± 0.054
6,GACCGACA,0.0969 ± 0.039
7,ATAGTATA,-0.0295 ± 0.11
8,AATAGGAC,-0.367 ± 0.014
9,AATCGTAC,-0.101 ± 0.12
10,CAGCGTTC,0.0186 ± 0.085
11,AATGTATA,-0.211 ± 0.0044
12,GCATGGAA,-0.242 ± 0.016
13,ACGTGACA,0.3127 ± 0.0018
14,ACTGGACA,-0.138 ± 0.026
15,GACCGAGC,-0.107 ± 0.042
16,ACTACTCT,-0.225 ± 0.021
17,ACACCGAA,0.213 ± 0.0062
18,AGCGTCTA,0.0653 ± 0.039
19,GTCCGTCA,0.109 ± 0.0058
20,AGAAACCT,-0.164 ± 0.0043
21,AGCAGCAC,0.145 ± 0.013
22,TACAACTA,-0.178 ± 0.17
23,ATGAAACA,-0.118 ± 0.0024
24,AGGGGTCG,-0.0173 ± 0.0068
25,CTGCTGAA,-0.114 ± 0.03

row,Sequence,PBM E-score of 8-mer
1,CTGTCGTC,0.125 ± 0.045
2,GACCAGCC,-0.0974 ± 0.05
3,AACACTAT,0.316 ± 0.049
4,AGTGTCAC,0.43943 ± 0.00026
5,CCGTGCAA,-0.0607 ± 0.027
6,AGAGTAAG,0.0445 ± 0.054
7,GGATGACC,0.103 ± 0.0083
8,AAGGCACT,-0.132 ± 0.022
9,TGAGACAA,0.1313 ± 0.0002
10,ATGCGGTG,-0.234 ± 0.046
11,GAACCATA,-0.137 ± 0.015
12,CCTTGAAA,-0.0919 ± 0.011
13,ATAAGCAA,-0.0776 ± 0.036
14,TGAGTACA,0.0977 ± 0.0054
15,CCCTATGA,-0.08 ± 0.038
16,CCATTGCG,-0.193 ± 0.085
17,CTCATTAA,-0.0585 ± 0.042
18,TCATTGGA,-0.0638 ± 0.031
19,TGATGAAA,0.136 ± 0.069
20,GCAGGAAA,0.0033 ± 0.0078
21,CCGGTAGC,0.0568 ± 0.039
22,CTCAGTTA,-0.0462 ± 0.038
23,CGAAGAAC,-0.169 ± 0.03
24,AGTCTCTA,-0.171 ± 0.035
25,AATTAGTA,-0.0654 ± 0.035

row,Sequence,PBM E-score of 8-mer
1,GTGCGAGA,0.42 ± 0.0079
2,CGGTCGAG,-0.111 ± 0.033
3,CTCTCTCC,-0.00167 ± 0.082
4,ATTGCACG,0.086 ± 0.0037
5,CTCCCTGC,-0.116 ± 0.0035
6,ACACCTCG,0.4804 ± 0.0036
7,GAGGACGA,-0.108 ± 0.0027
8,CTTGCGGA,0.055 ± 0.09
9,ATGTGTGC,0.299 ± 0.0091
10,CATAACGA,-0.166 ± 0.013
11,TAGTGCAA,0.247 ± 0.024
12,CGCAATAA,-0.0582 ± 0.043
13,ATCTAAGA,-0.3493 ± 0.00096
14,ACGTAACA,0.0479 ± 0.058
15,GGACCGAA,-0.151 ± 0.097
16,AAGGGAAC,-0.163 ± 0.012
17,ACGGCCGT,0.139 ± 0.017
18,ATTACAGG,-0.0668 ± 0.008
19,ATGACAGA,-0.0153 ± 0.019
20,ACATATAA,-0.159 ± 0.013
21,GTTAGCCA,0.0563 ± 0.019
22,AACTACGT,-0.0858 ± 0.012
23,GCCGGCAC,0.19 ± 0.042
24,GGATGCAC,-0.141 ± 0.064
25,AGTTGGTC,-0.0262 ± 0.06

row,Sequence,PBM E-score of 8-mer
1,ATTCGAAA,0.01 ± 0.018
2,GGGGCCAC,0.0079 ± 0.0018
3,ACGCTCGG,-0.0977 ± 0.019
4,AACGCCCT,0.235 ± 0.0089
5,CGGAGGAG,-0.0431 ± 0.028
6,CAACAGCG,0.105 ± 0.035
7,CAAATCGC,0.265 ± 0.025
8,GAGGGACC,-0.244 ± 0.061
9,CTTAAGTC,-0.0735 ± 0.11
10,CAAGGAGA,-0.0986 ± 0.082
11,AAAACGAT,-0.0447 ± 0.022
12,CCGAACCG,-0.221 ± 0.0042
13,AGCGACAT,0.151 ± 0.018
14,ATTATACA,-0.248 ± 0.012
15,GGCGGTGA,0.0218 ± 0.022
16,ACCTTTAC,0.113 ± 0.043
17,CGCGCCCA,0.242 ± 0.045
18,TAACTTAA,-0.0659 ± 0.045
19,TATCAACA,0.0884 ± 0.0019
